{"source": "paper PMC12136788", "binders": {"B1": {"name": "chr5:128440902:128440903:+_ENSG00000066583_ENST00000173527|hu_hu|motif|central (ssRNA)", "RNA": "GGGAGUUCUACAGUCCGACGAUCUUGAACCGUGCUCCCAAGACCUUUAGGGUAUUGUUCUGUUACAAUAACAGGAAUUCCGGAAAUCCGGGCCCCUUGCAACAAUCUCUGUCCCACGCUAAUAAUAUCCCCAAAAUACUUGAUCAACAGAGGAUUGAGCAUCA"}, "B2": {"name": "chr17:87533601:87533602:+_ENSMUSG00000037104_ENSMUST00000041369|mus_hu|motif|central (ssRNA)", "RNA": "GGGAGUUCUACAGUCCGACGAUCUGUUGAAUGUGGGCUCACAGGAGCUGUAUGCUGUUUAAUCAAAUGCCAUUUUUGGGCGGAAUCUGAGCCAGCAGGAAAAGGGCAUUUCUCAAGCAUUAAUUCAGAGAGAUGGAUUUUUCUCAACAGAGGAUUGAGCAUCA"}, "B3": {"name": "chrX:102632674:102632675:+_ENSG00000166681_ENST00000361298|hu_mus|motif|central (ssRNA)", "RNA": "GGGAGUUCUACAGUCCGACGAUCGUGGUUAGACAGCUCCCCCAUAAGGAUGCGUAGACAAUUUCUCAGCUGUAGCUCCCGGAGCUUUCUCCGGAUCUCUCUCAUCUCCUCCAUGAACAUUUCCAUAUCAUCUCCAUCUCCACCCAACAGAGGAUUGAGCAUCA"}, "B4": {"name": "chr3:10015032:10015033:+_ENSMUSG00000027533_ENSMUST00000029046|mus_mus|mus_mus_mus_hu_True|38_68 (ssRNA)", "RNA": "GGGAGUUCUACAGUCCGACGAUCGUUUUUACCAUCACAAGUGAUGAUACAAUCUGGCUUGGCCAUUGCAGCCAUCUUUCGCAAAGCUAUUCCCACUCCUAGCUCUUUCAUGUAUUCAUCAAAGCCUUUGCUGUCCACCAGGCGCAACAGAGGAUUGAGCAUCA"}, "B5": {"name": "chr17:53623224:53623225:+_ENSMUSG00000017831_ENSMUST00000017975|perfect_dup|FALSE|FALSE (ssRNA)", "RNA": "GGGAGUUCUACAGUCCGACGAUCGGCCCGUUGGGUCUUGUUGCUCCUCGAUUAGCCAUGUCCAAAUUUUAAAGAAGUCCCUAAUUUCAGAUUCCUAAAUGAACUUCCAGGAUGCAAGGCAUUAAUUUUGUUUUCUUUCUGGAGCAACAGAGGAUUGAGCAUCA"}, "B6": {"name": "chrX:12171913:12171914:+_ENSMUSG00000031007_ENSMUST00000033313|perfect_dup|motif|central (ssRNA)", "RNA": "GGGAGUUCUACAGUCCGACGAUCCCUGGUAUAGGCCAAUUUCCAUUUCGGAAAACAACAGACCCUGGCGAUCUUAAUAUGCGGAAUUCAUUCCCUAAAGCACCCGCCACCAGAAAGAACAGGAGAACGACCAGCACAGCCAUGCAACAGAGGAUUGAGCAUCA"}, "B7": {"name": "44958381_44959107_521_CDS_ENSG00000175274_ENST00000395648|human|control|control (ssRNA)", "RNA": "GGGAGUUCUACAGUCCGACGAUCGGGGGUCUUGCUGGUCACCUGGGCUCCAUCAAAGACCGCAUCAUAGAGCUGGUCAGGGAAGGCAAGCGCCAUGAUGGCAAUGCCGGAGAAGAGCACAGCAGAGACGAACUGCCAGACCCUCAACAGAGGAUUGAGCAUCA"}, "B8": {"name": "chr12:111951244:111951245:-_ENSG00000204842_ENST00000535949|hu_hu|motif|central (ssRNA)", "RNA": "GGGAGUUCUACAGUCCGACGAUCUCUUGGAACCCCACUGACCACUGAUGACCACGUUCCCCCCGAGGGACUGGUCCUUGCGGCUGGAGGAGUAGCUGCUUCACUGGGUGGGUUGUGGGAUACAAAUUCUAGGCCACUGGAUAUCAACAGAGGAUUGAGCAUCA"}, "B9": {"name": "chr4:21803547:21803548:+_ENSMUSG00000028248_ENSMUST00000098238|mus_mus|FALSE|FALSE (ssRNA)", "RNA": "GGGAGUUCUACAGUCCGACGAUCUUCACUUGAAGAGUAAUCUAAAACACUUUAAGGUAUGAAAAUUUUAUACAACUUAUCUAUUACAAAUUAAUCAGAAUUCUUCAAUUAGAUACACUGUGUUAGCUCACCUACAUAAAAAAUCAACAGAGGAUUGAGCAUCA"}, "B10": {"name": "35793348_35793468_435_3pUTR_ENSMUSG00000016534_ENSMUST00000061755|mouse|control|control (ssRNA)", "RNA": "GGGAGUUCUACAGUCCGACGAUCUUGUAGGAAAGCACGAUGUCAUGAAUUGAAUAAUGAGAUGCUUCCUUGGUAAAAUUCACAGCCCAAGAGACAGCGAAUCCAAAUUGUAUCAUUAUUUUGGCACUAUUCCGGUCAUCCCCACAACAGAGGAUUGAGCAUCA"}, "B11": {"name": "chr7:54823571:54823572:-_ENSG00000132432_ENST00000352861|hu_mus|hu_hu_hu_mus_False|1_88 (ssRNA)", "RNA": "GGGAGUUCUACAGUCCGACGAUCUCCCAUGAUAGCAAAUCCUAUAGCUGUUGCCAUGGCAAUCUUCUGGAAUUCUUUUCUGUCGGGUUUGGUGCAUCUUUUAACCAGCCGAAUUGAGUCCUUUACAAACUGCCGGCUUGGCUCCAACAGAGGAUUGAGCAUCA"}, "B12": {"name": "chr8:21961785:21961786:+_ENSG00000158863_ENST00000289921|hu_hu|motif|central (ssRNA)", "RNA": "GGGAGUUCUACAGUCCGACGAUCGCACUGAGGAGAGGGGAGGGUCUGUGACUCCCAAACCCUCGAAUAUUUUAUGAAUCGGAGAGUCCAGACGCAGUUCAUCCACGGAGAUCUGCGCCCCGUCCACACCAACACCCACGUUUGCAACAGAGGAUUGAGCAUCA"}, "B13": {"name": "chr10:107688926:107688927:+_ENSMUSG00000019907_ENSMUST00000070663|mus_mus|motif|central (ssRNA)", "RNA": "GGGAGUUCUACAGUCCGACGAUCUUCAUUGAUCGAACUAUUCUUUUUAAGAUCAUCUUCCCAUUUUCUUCUUGUGUAAGAACGGCUUGUUCGCAAACUUGAAGACUCUCUGUUCUCCUUCUCUUCAAUGUCAGAUGUACUGGCCAACAGAGGAUUGAGCAUCA"}, "B14": {"name": "chr2:65539780:65539781:-_ENSG00000198369_ENST00000356388|hu_hu|FALSE|FALSE (ssRNA)", "RNA": "GGGAGUUCUACAGUCCGACGAUCUUUGCAAAACAACAAGCAAAAUUUCUUACUUCACUAGUAUCCUAUUCUAAUAUUGCUAAAUUUUUAGAAGUGGUGGCAACACAAUUUAAAAAAUGUUCUACUUUAGGGGUAAUGGGGAGGCAACAGAGGAUUGAGCAUCA"}}, "note": "The other results are listed elsewhere or left out."}
{"target": "T1, UNK ZnF1-3 (human, UniProt Q9C0B0 31-174)", "T1 sequence": "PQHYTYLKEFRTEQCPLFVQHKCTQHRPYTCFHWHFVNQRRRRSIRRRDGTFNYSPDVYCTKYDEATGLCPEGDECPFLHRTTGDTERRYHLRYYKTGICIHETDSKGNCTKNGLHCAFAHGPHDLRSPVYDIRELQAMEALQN", "assay": "nsRBNS (natural sequence RNA bind-n-seq); RBNS binding buffer (assumed for nsRBNS): 25 mM Tris pH 7.5, 150 mM KCl, 3 mM MgCl2, 0.01% Triton X-100, 500 ug/ml BSA, 20 U/ml SUPERase-In, 4 C; UNK is unkempt and MSI1 is Musashi-1; names of the RNAs are library labels; protein concentration not given here; high values mean tight binding", "units": {"binding signal": "enrichment R"}}
{"binder": "B1", "binding signal": 1.08}
{"binder": "B2", "binding signal": 1.19}
{"binder": "B3", "binding signal": 1.17}
{"binder": "B4", "binding signal": 0.773}
{"binder": "B5", "binding signal": 1.09}
{"binder": "B6", "binding signal": 1.44}
{"binder": "B7", "binding signal": 1.14}
{"binder": "B8", "binding signal": 0.716}
{"binder": "B9", "binding signal": 1.59}
{"binder": "B10", "binding signal": 1.24}
{"binder": "B11", "binding signal": 0.621}
{"binder": "B12", "binding signal": 1.1}
{"binder": "B13", "binding signal": 0.374}
{"binder": "B14", "binding signal": 3.03}
